Assay results reported in the supplement of paper PMC10126150.
Values marked as one replicate rest on one cluster of the flow cell; about a third of the high ones do not repeat.

Tested on: ATP
Assay: switch fluorescence ratio, 500 uM ATP over buffer (Cy3 cluster intensity, sum of 5 cycles each) (fold (ratio)); higher = stronger signal-on switching upon ATP binding; sequences stand for … in TCGTCGGCAGCGTCAGATGTGTATAAGAGACAGTTTTTTTTTTTTTTTTTTTTTTTTT…TC
Details: aptamer strand: ATP DNA aptamer (quencher-CACCTGGGGGAGTATTGCGGAGGAAGG + anchor), 100 nM annealed; ATP concentration: 500 uM; one replicate
Method in brief: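 Between each of five buffer/ATP cycles, the flow-cell was stripped with NaOH and re-annealed. Each cycle imaged Cy3-labelled switching-strand clusters, annealed to 100 nM quencher-labelled ATP aptamer on a modified Illumina MiSeq flow-cell, first in selection buffer and then after 15 min with 500 uM ATP at 22 °C. The fluorescence ratio is summed target-cycle over summed buffer-cycle Cy3 intensity per cluster, averaged per switch-domain sequence, with clusters outside 100-1000 RFU excluded.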
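Further: ATP exposure 15 min at 22 °C before imaging.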

Sequence	switch fluorescence ratio
GAGGGCATGC	1.01
GGCAGAAAAG	0.971
GGCTATTTAC	1.05
AATTCTTTAC	1.03
ATGTGCGCCA	1.04
GTCCATTGTC	0.97
TTGTGGGCCG	0.981
CAAAGTAGGT	1
TGGCATCTT	1.01
TTGTCTTACA	1.01
GATCGTAGTT	0.97
TGTTTTACAA	0.972
GATCTTCTC	1.01
GGGTATTCGT	0.987
ATTTCATCTA	0.96
ATAGATTAGA	0.981
ATCGAAGATC	0.984
CAGGCGTCAT	1.04
ATTGGGCGGA	1.03
CGCGTCTGTG	1
ACACACAGCT	1.28
AAACCACGAT	1.05
TCCAATTCGA	1.02

Sequence	switch fluorescence ratio
TATTAGTTG	1.01
TGGTAGAGGC	0.999
AGCGTATAAC	1.06
CCATCGGT	0.995
GTTGGACTCA	1.03
CCCAATATCT	1.88
TGAAGTTAGA	1.02
ATGTCAAGTG	0.976
GACTGGCCAA	1.04
TTCCTCAACT	1.11
GCTATCCTTG	0.99
TATCTGGCGG	0.942
AGTCTCAGAG	0.988
ATTAATCTCT	1.03
GTTGATGTGC	1.01
GTGGGCGGTT	0.981
AATTTAAAGA	1.02
TTCCAGTC	0.968
TGATAGGAGA	1.04
TACTCCTCG	1.1
CGGACAGGTT	1.04
CACAAATGTA	1
AGGATTCCGG	1.02

Sequence	switch fluorescence ratio
ATCTGATTCA	0.977
CAAGTTTCAT	0.954
AGCCTCGTAG	1.01
AACTTTTTT	1.03
TGCCCCCGTG	1.73
GAGAATTTAT	0.983
AATCATTTGG	0.972
GGCCATACT	1.03
AAGATCG	0.989
TCATGATGGA	1
ATTACCTTAG	1.06
ATGTAGCGTC	1.09
GCCGATTGGT	0.985
TAGGAAAGCT	1
TGCTTTGGGC	0.972
AAATAAGACC	1.01
TAGTCCTCAT	1.02
AAGTTCGGAC	1.07
TCGATTGTGA	0.987
TTGAGAAATC	1.05
CCAGCAGATA	1.26
GGTGCCGATA	0.919
TATGTTACAA	1.06

Sequence	switch fluorescence ratio
GATATTGTGT	0.997
ACTTCATTGA	1.02
CATAGGTCCG	0.984
TGGGCCCACA	0.954
ATATTCACCT	1.19
TCGCAAAAGA	3.67
AGGCGGGTCC	1.03
AAGTCCTGTT	0.996
GTACCTCAAA	1.01
TCGAGATTGA	0.945
GTCCTCTTCT	1.02
GTCTAAGGTC	0.931
TCACCCCCTT	1.54
GCGTAATGTG	1.02
GCCTTGCGTG	0.983
TAGACAGCAT	1.01
AGGTGGATCA	0.987
AAAAGTGTGC	1.12
TTGTTGAACG	0.943
GGGGGATCAC	1.03
CCTTCCTGTT	1.51
AGGGAGGCGT	0.999
TGTCTTACTA	1.02

Sequence	switch fluorescence ratio
GACTGAACCC	1.1
CCGATATAAA	1.1
CTGATCATGG	1.01
AAACGGAGAG	1.01
GAGACAGA	1.03
GCAATCGTTT	1.01
CGGAGTATGA	1.08
TCCTACACTT	1
CGATATGGGA	1.02
TTCGTCTTGG	0.996
GGTCATTCGC	1.1
ACGGTTCACG	0.999
TGCGGGGTTC	0.989
CTGTTGGGC	0.991
AGTAGGGGA	1.13
TGGCTGATGC	0.971
CTGGTGCTTC	1.04
TGAGTGCTAT	0.947
CGATTGGTCA	0.978
TTGTTGGGTA	1.01
CCCTGATTTC	1
GACAAGGCTG	1.03
CGGTAAAATG	1.01

Sequence	switch fluorescence ratio
TTCGTTGTAT	1
TGGTTTTGAG	1.02
ATGAGCCAT	1.04
AGTATTCCCA	0.99
ATCTTAGTCA	1
ATGTGACTCA	0.954
TCTAGGACCT	1.2
CTTAATTA	0.968
TCGATATTAC	1.39
CGATATTTGC	1.03
GTAAACTTTT	1.44
AACCGCACGT	1.62
GCTGTCCATT	1
GCATAAGTCT	1.05
AATACGGCGA	1.08
GCCGTGCTTT	1.01
CAGTGGGTAT	1.01
GTATTTCTGC	0.899
TCTAGGGGA	1.1
ATGGCATCTC	0.978
GACCTGCTGC	1.09
GAAATTGGTC	1.04
GGTGATTACC	0.966

Sequence	switch fluorescence ratio
GGTAGGGGC	1.01
AAGAGGCTCA	1.02
TGCTTATGAT	0.995
CATATCGAGC	0.93
GGCATTTTCT	0.987
GAAAGATGCT	0.961
TCGGTTAGAC	1.07
TGTTCACCTT	1.06
ATCCTAGCTC	1.04
CCTGGCGGGT	1.62
GCTCTGCAGC	2.45
AGATAGCAAG	1.05
CTTGCATCTA	1
ATTTGATAA	0.993
GAGGTGTCTT	0.984
TATTCGGGCT	0.993
GTTGAGGCGG	1
GTGGTCTACA	0.988
CGCCGAGGTG	1.87
CCAGATAGGG	1.04
